Inhibition data for 63 compounds are collected here from PubChem BioAssay AID485344 (National Center for Advancing Translational Sciences (NCATS), 2010).

The campaign covered roughly 340,000 compounds. About 6,900 (2%) were called active. Rule as the data show it: active = inhibition above about 30%; inactive = below that, where a call was filed. Only a part is listed here, and it is no random draw. Entries without a call were filed so in the source.

The target in the assay is D(2) dopamine receptor (Homo sapiens) (UniProt P14416). Kind of assay: HTS Assay for Allosteric Antagonists of the Human D2 Dopamine Receptor: Primary Screen for Antagonists. Also: 0% is about no effect. To be noted: HEK293 TREx D2 cells, calcium flux, dopamine EC80; at 10 µM; stronger effect = higher value. The method, boiled down: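 Measurement of antagonist activity uses fluorescent calcium dye in inducible HEK293 T-REx D2 cells: 10 s baseline, compound addition with 180 s read, EC80 dopamine addition with a further 180 s read.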
UniProt P14416, sequence (P14416 whole entry, looked up): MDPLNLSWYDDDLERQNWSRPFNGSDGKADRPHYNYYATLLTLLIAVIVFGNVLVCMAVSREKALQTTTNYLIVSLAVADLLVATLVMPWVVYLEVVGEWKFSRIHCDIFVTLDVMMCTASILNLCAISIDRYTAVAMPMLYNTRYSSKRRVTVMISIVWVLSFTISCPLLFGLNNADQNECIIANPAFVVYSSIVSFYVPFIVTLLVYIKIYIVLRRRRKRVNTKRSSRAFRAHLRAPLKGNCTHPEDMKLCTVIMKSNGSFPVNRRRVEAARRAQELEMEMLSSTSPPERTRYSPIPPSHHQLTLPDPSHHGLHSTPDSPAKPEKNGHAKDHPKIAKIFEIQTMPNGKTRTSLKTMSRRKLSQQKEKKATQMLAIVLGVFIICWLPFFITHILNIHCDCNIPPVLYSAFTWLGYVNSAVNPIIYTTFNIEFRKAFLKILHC
With `CCOc1ccc(OCC)c(Nc2nc3ccc(C(=O)c4ccccc4)cc3n3cnnc23)c1`, the inhibition stood at 8.22%.
The result for `C=CCNC(=O)c1ccccc1Cl` reads active: 40.2%; that for `O=C(Cn1cc(SCc2ccccc2F)c2ccccc21)N1CCCC1`, 23.9%.
For the compound `COc1ccc(NC(=O)c2c(NCc3cccs3)sc3c2CCCCC3)c(OC)c1`, the inhibition stood at 4.03%.
For the compound `Cc1cc(Br)ccc1NC(=O)CCNS(=O)(=O)c1cccc2nonc12`, the inhibition is -6.64%.
With `O=C(Nc1ccc(Br)cc1F)c1cc2nc(-c3ccco3)cc(C(F)(F)Cl)n2n1`, the inhibition was -11.3%.
With `CCOc1ccc(Cn2c(CNS(=O)(=O)c3ccc(CC)cc3)nc3cccnc32)cc1`, the inhibition is -2.24%.
Take `CCCn1cc(S(=O)(=O)c2ccc(CC)cc2)c(=O)c2cc(F)c(N3CCN(C)CC3)cc21`: the inhibition worked out at 1.29%.
On to `CCOC(=O)c1c(S(=O)(=O)N2CCN(c3cccc(C(F)(F)F)c3)CC2)c(C)n(C)c1C`, for which the inhibition came to 3.44%.
Under `CNC(=O)c1ccc2nc(Cc3ccccc3)oc2c1` stands 19.5%; under `COc1ccc(OC)c(CCNC(=O)c2nn(C)c3c2CSc2ccccc2-3)c1`, 24.5%; under `CC(C)c1ccc2oc(-c3ccc(Cl)c(NC(=O)Cc4ccccc4)c3)nc2c1`, 4.84%.
Regarding `CCC1CCc2c(sc(NC(=O)C3c4ccccc4Oc4ccccc43)c2C(=O)OC)C1` (stereo not drawn), the inhibition amounted to 7.24%.
For the compound `Cc1ccc(C(=O)c2oc3ccccc3c2NC(=O)C(C)Oc2ccccc2Cl)cc1` (stereo not drawn), the inhibition was 11.9%.
Turning to `Clc1ccc(OCCN2CCCCC2)c(Cl)c1`, the inhibition was active: 72.2%.
As for `CCOC(=O)N1CCC(NC(=O)c2ccc3c(c2)N(Cc2ccc(Cl)cc2)C(=O)c2ccccc2S3(=O)=O)CC1`, the inhibition is 26.8%.
The result for `CCOC(=O)c1ccc(N2C(=O)c3n[nH]c(-c4cccs4)c3C2c2ccc(OC)cc2OC)cc1` (stereo not drawn) reads 6.3%.
Consider `Cc1ccc(NC(=O)c2ccc(N(Cc3ccccc3)S(C)(=O)=O)cc2)cc1`, for which the inhibition was determined as 7.2%.
As to `O=C(Nc1nc2c(s1)CCCC2)c1ccccc1F`, the inhibition is -3.09%.
For the compound `CC(C)c1ccc(C2=NC(c3ccncc3)=Nc3ccc(F)cc3N2)cc1`, the inhibition was 13.1%.
The result for `Cc1noc2ncnc(NCc3ccc(Cl)cc3)c12` reads -0.849%; that for `CN(C)c1ccc(C(=O)Nc2ccc(-c3nc4ccccc4o3)cc2)cc1`, 1.28%; that for `Cc1ccc(-c2cc(NC(=O)C(C)Oc3ccccc3F)on2)cc1` (stereo not drawn), -1.73%.
Turning to `Cc1cc(NC(=O)C2CCCN(S(=O)(=O)c3cn(C)cn3)C2)ccc1Br` (stereo not drawn), the inhibition came out at 11.3%.
Under `Cn1c(C(=O)N2CCC(C(=O)N3CCN(c4ccccc4)CC3)CC2)cc2sccc21` stands -4.34%; under `Cc1nnc(N2CCN(c3cccc(C(F)(F)F)c3)CC2)c2c1nnn2Cc1ccccc1`, 14.5%.
The result for `Cc1ccc(CNC(=O)c2c[nH]n3c(=O)c(Cc4ccc(F)cc4Cl)c(C)nc23)cc1` reads -11.7%; that for `COc1ccc(N2Cc3cccc(C(=O)Nc4cccc(F)c4)c3C2=O)cc1`, -5.28%.
For the compound `c1ccc(CN2CCN(c3ncccn3)CC2)nc1`, the inhibition was active: 37.3%.
Under `CN1CCN(C(c2cccs2)c2nnnn2Cc2ccc(F)cc2)CC1` (stereo not drawn) stands active: 41.5%.
The result for `CC(NC(=O)COC(=O)CCc1ccccc1)c1ccccc1` (stereo not drawn) reads active: 34.8%; that for `CC(C)Oc1ccc(CNC(=O)c2cccc(NC(=O)c3nsc4ccccc34)c2)cc1`, 5.1%.
Consider `CCOc1ccc(CC(=O)Nc2c(C(=O)c3ccc(F)cc3)oc3ccc(Cl)cc23)cc1OCC`, for which the inhibition is -3.99%.
Under `COc1ccc(Nc2c3c(nc4ccc(NC(=O)c5cc(Cl)ccc5OC)cc24)CCCC3)cc1OC` stands -8.95%; under `O=C(Nc1ccc(C(=O)OCc2cc(=O)n3ccsc3n2)cc1)c1cccc(F)c1`, 14.1%.
Consider `Cc1cc(C)cc(NC(=O)N2CCC(N3CCN(Cc4ccccc4)C(=O)C3=O)CC2)c1`, for which the inhibition came out at 11.4%.
As to `COc1ccc(OC)c(CNC(=O)C2CCN(S(=O)(=O)c3ccc4[nH]c(=O)oc4c3)CC2)c1`, the inhibition was determined as 4.38%.
On to `COc1ccc(N2CCN(c3oc(/C=C/c4ccccc4OC)nc3C#N)CC2)cc1`, for which the inhibition was -1.58%.
The result for `COc1ccc(NC(=O)C(=O)NCc2ccco2)c(OC)c1` reads -0.788%.
Regarding `COc1ccc(C(=O)NC2CC3CCCC(C2)N3Cc2ccccc2)c(OC)c1` (stereo not drawn), the inhibition was active: 86.4%.
Take `CCc1ccc(S(=O)(=O)c2nnn3c2nc(NC(C)C)c2cc(Cl)ccc23)cc1`: the inhibition is -2.19%.
`Cc1cccc(N(CC(=O)N(C)Cc2ccccc2)S(=O)(=O)c2ccccc2)c1C`: the inhibition was -24.5%.
As for `CCC(=O)N1CCc2cc(Br)cc(S(=O)(=O)N3CCCC(C(=O)Nc4ccc(OC)cc4OC)C3)c21` (stereo not drawn), the inhibition is -17.5%.
On to `CC(=O)c1cc(-c2ccccc2)n(CCC(=O)NC2CCCCC2)c1C`, for which the inhibition is -17.8%.
`CC12CN3CC(c4ccccc4)(CN(C1)C3c1ccc(Cl)cc1)C2=O` (stereo not drawn): the inhibition was -11.2%.
As for `CCOc1ccc(NC(=O)c2c(NCc3cccs3)sc3c2CCCCC3)cc1`, the inhibition was -23.7%.
On to `COC(=O)c1scc(-c2ccccc2)c1S(=O)(=O)Nc1ccc(C)c(Cl)c1`, for which the inhibition is 8.47%.
Consider `COc1ccc(C2C=C(c3ccccc3)Nc3nc(NC(=O)/C=C/c4ccccc4OC)nn32)cc1` (stereo not drawn), for which the inhibition worked out at 13.7%.
Turning to `Cc1cccc(OCC(=O)N(Cc2ccc(N(C)C)cc2)Cc2ccco2)c1C`, the inhibition was found to be 6.3%.
Take `Cc1ccnc2nc(NC(=O)c3ccccc3Cl)nn12`: the inhibition was determined as 7.2%.
Under `COc1ccc(NS(=O)(=O)c2c(C)nc3scc(C)n3c2=O)cc1` stands 3.43%.
Take `O=C(Nc1ccc2nc(SCC(=O)N3CCOCC3)sc2c1)c1cccc(F)c1`: the inhibition was determined as 11.1%.
Take `COc1cccc(NC(=O)CSC2=Nc3ccccc3C3=NC(CC(=O)NCc4ccccc4OC)C(=O)N23)c1` (stereo not drawn): the inhibition was -0.428%.
In the case of `O=c1oc2ccc(Cl)cc2cc1-c1cn2c(n1)sc1ccccc12`, the inhibition is -11.1%.
With `CCOC(=O)N1CCN(S(=O)(=O)N2CCCC(C(=O)NCc3ccc(OC)cc3OC)C2)CC1` (stereo not drawn), the inhibition amounted to 2.73%.
With `CCCCNC(=O)CCSc1nc(-c2ccc3c(c2)OCO3)cc(C(F)(F)F)n1`, the inhibition was 3.88%.
For `O=C(NCCc1ccc(Cl)cc1)c1ccc(CSCc2ccc(Cl)cc2)o1`, the inhibition amounted to 4.94%.
Under `CCc1ccccc1NC(=O)Cn1c(=O)n(CCc2ccccc2)c(=O)c2ccccc21` stands 4.33%.
Regarding `CCCC(=O)n1nc(-c2cccnc2)nc1NCc1ccccc1`, the inhibition was -12.3%.
For `CCOc1ccc(NC(=O)CCC(=O)N2CCSc3ccccc32)cc1`, the inhibition was -19.2%.
With `COc1ccc(N2CCN(C(=O)Nc3ccccc3Cl)CC2)cc1`, the inhibition was -8.85%.
For `O=C(O)CCn1cnc2onc(-c3ccccc3Cl)c2c1=O`, the inhibition was 3.96%.
`CCC1CCCCN1C(=O)Cn1c(=O)n(CCCCCC(=O)NCc2ccc(F)cc2)c(=O)c2sccc21` (stereo not drawn): the inhibition was 6.12%.

As a reminder, the inhibition is the relative decrease from the control value, in per cent.
